Screen size: about 290,000 compounds; about 2,100 (0.72%) were called active. The inconclusive results got no clear call from the source; some entries with a clear call stand among them for comparison. The call rests on the fitted dose curve; in most records, active means well fitted inhibition curve with a large enough effect; inconclusive means small, poorly fitted or top-dose-only effect, or effect the other way; inactive means flat fitted curve, though single readings scatter. Potencies beside an inconclusive call are fits to weak or partial responses and may not hold up.
The compounds below were run against Fructose-bisphosphate aldolase (Giardia intestinalis (strain ATCC 50803 / WB clone C6)) (UniProt A8B2U2) (assay: qHTS Assay for Inhibitors of Fructose-1,6-bisphosphate Aldolase from Giardia Lamblia). Conditions: purified Giardia FBPA; series mostly up to 59.6 µM.
Sequence of UniProt A8B2U2 (A8B2U2 whole entry, looked up): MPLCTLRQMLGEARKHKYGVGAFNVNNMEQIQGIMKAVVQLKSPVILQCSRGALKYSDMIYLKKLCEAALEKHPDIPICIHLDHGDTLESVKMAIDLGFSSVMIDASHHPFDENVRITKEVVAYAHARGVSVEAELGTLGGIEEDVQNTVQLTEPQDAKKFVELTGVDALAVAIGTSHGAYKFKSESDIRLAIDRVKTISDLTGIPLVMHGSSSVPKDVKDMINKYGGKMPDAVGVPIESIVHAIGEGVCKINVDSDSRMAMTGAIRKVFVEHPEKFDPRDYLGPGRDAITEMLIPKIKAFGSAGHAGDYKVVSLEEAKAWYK
Summary of the method: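 Giardia FBPA (40 nM reagent) was preincubated 10 min at RT with compound (up to 57.5 uM final), then substrate plus GAPDH/TPI/NAD/arsenate coupling system with diaphorase/resazurin was added; resorufin fluorescence (525/598 nm) was read after 20 min.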
Further: nearly all actives have a fitted effect of over 55% in size.
Potency means the concentration at half of the fitted maximal effect; tags describe the fitted curve by direction and shape.

Compound	Potency
Cn1nc([N+](=O)[O-])nc1Sc1nnnn1-c1cccc(C(=O)O)c1	inconclusive: 17.7 µM [inhibitor, partial curve]
COc1cc(OC)cc(C(=O)NC(=S)N2C[C@H]3C[C@H](C2)c2cccc(=O)n2C3)c1	active: 11.2 µM
CCC1CCCCN1C(=O)Nc1cccc(NC(=O)N2CCCCC2CC)c1 (centres undefined)	inconclusive: 3.15 µM [inhibitor, partial curve]
CCN(CC(=O)Nc1cc(Cl)ccc1OC)CC(=O)NC1CCS(=O)(=O)C1 (centres undefined)	inconclusive: 12.6 µM [inhibitor, partial curve]
COc1ccc(N=Cc2c[nH][nH]c2=O)cc1	inactive
CCc1cc(SC#N)cc(CC)c1NC(=O)CCl	inconclusive: 3.15 µM [inhibitor, full curve, poor fit]
C=CCc1cc(C)ccc1OCCCn1ccnc1	active: 25.1 µM
CC/C(=C\c1oc2cc3ccccc3cc2[n+]1CC)Nc1ccccc1	inconclusive: 19.9 µM [inhibitor, partial curve]
CCCn1nc2cc(C(=O)NCc3ccc4c(c3)OCO4)ccc2c1OCC	inactive
CCc1cc(=O)[nH]c(SCc2cccc3ccccc23)n1	inconclusive: 25.1 µM [inhibitor, single point]
CC(C)n1cnc2c(=S)nc[nH]c21	active: 3.15 µM
Brc1ccc(N/N=C(/N=Nc2nn[nH]n2)c2ccccc2)cc1	inconclusive: 7.92 µM [inhibitor, partial curve]
Cc1ccccc1NC(=O)NNC(=O)CCc1ccccc1	inactive
CC(C)c1cccc(O)c(=O)c1	inconclusive: 14.1 µM [inhibitor, partial curve]
COc1cc(C(=O)Nc2nc3ccccc3[nH]2)ccc1OC(F)F	inconclusive: 11.2 µM [inhibitor, partial curve]
CC(=O)NC(NC(C)=O)c1ccc(N(C)C)cc1	inactive
COCCn1c(=O)c(-c2cccs2)nc2cnc(N(C)C)nc21	inactive
N#Cc1ccccc1NC(=O)CSc1n[nH]c(-c2ccco2)n1	inconclusive: 14.1 µM [inhibitor, partial curve]
COc1cccc(/C=C2\SC(=S)N(NS(=O)(=O)c3ccccc3)C2=O)c1OC	inconclusive: 22.4 µM [inhibitor, partial curve]
COC(=O)C[C@@](O)(CCC(C)(C)O)C(=O)O[C@@H]1C(OC)=C[C@]23CCCN2CCc2cc4c(cc2[C@@H]13)OCO4	inactive
Cc1onc(-c2ccccc2)c1C(=O)NNC(=S)NC(=O)/C=C/c1cccs1	inconclusive: 3.54 µM [activator, full curve]
Cn1c(=O)c2c(nc(Br)n2C/C=N/NC(N)=S)n(C)c1=O	inconclusive: 3.97 µM [inhibitor, full curve]
COc1cc(C2c3c(oc4ccccc4c3=O)C(=O)N2Cc2ccncc2)ccc1O (centres undefined)	inconclusive: 44.6 µM [inhibitor, single point]
CCCc1nc(Cl)c(C#N)c2c1CCCC2	inactive
NC(=O)NC(=O)CC1S/C(=N/N=C2\CSC(=O)N2)NC1=O (centres undefined)	active: 12.6 µM

Compound	Potency
O=[N+]([O-])c1cc2c(cc1CN1CCN(c3ccc(F)cc3)CC1)OCO2	inconclusive: 35.5 µM [inhibitor, single point]
CCOC(=O)C1CCN(C(=O)c2cccc(NC3=NC4CS(=O)(=O)CC4S3)c2)CC1 (centres undefined)	inconclusive: 20 µM [inhibitor, single point]
CN(C)c1cccc(C(=O)OC(C(=O)Nc2ccc(Cl)cc2C(F)(F)F)c2ccccc2)c1 (centres undefined)	inactive
C=C(C)C1CC=C(C)/C(=N/NC(=O)CCC(=O)Nc2ccccc2Cl)C1 (centres undefined)	inactive
CC(NCC(=O)Nc1cc(Cl)cc(Cl)c1)c1ccccc1 (centres undefined)	inconclusive: 15.8 µM [inhibitor, partial curve]
C#CCSc1nncn1C(=O)/C=C/c1ccccc1	inconclusive: 7.92 µM [inhibitor, partial curve]
C=CCn1cccc(/C=C/C(=O)c2ccc(C(C)(C)C)cc2)c1=S	inactive
O=C(O)c1cc(S(=O)(=O)N(Cc2ccccc2)c2ccccc2)ccc1Cl	inconclusive: 39.8 µM [activator, single point]
O=C(O)C1=NN(c2ccccc2)C(=O)C1	inconclusive: 15.8 µM [inhibitor, partial curve]
Cc1csc(NC(=O)c2ccc[nH]c2=O)n1	inactive
c1ccc(CCCN2CCOCC2)cc1	inconclusive: 25.1 µM [inhibitor, single point]
CCn1c(SCC(=O)NNC(=S)Nc2ccc(C)cc2)nnc1-c1ccc(Cl)cc1	inconclusive: 19.9 µM [activator, partial curve]
COc1ccc(C(=O)NNC(=O)c2cccc(F)c2)cc1	inconclusive: 14.1 µM [inhibitor, partial curve]
CCCCn1c(-c2c(Cl)c(C)nn2C)n[nH]c1=S	inactive
COC(=O)c1ccc(NC(=O)C(OC)c2ccccc2)cc1 (centres undefined)	inactive
C=CCn1c(SCC(=O)NC2CCCC2)nnc1-c1cccnc1	inconclusive: 25.1 µM [inhibitor, partial curve]
CSCC[C@@H](Nc1nc(-c2ccccc2)nc2c1oc1ccccc12)C(=O)O	inconclusive: 19.9 µM [activator, single point]
COC(=O)c1cccc2c1NC(=O)C2=O	inconclusive: 14.1 µM [inhibitor, partial curve]
C=CCn1c(CCSCc2ccc(OC)c(C)c2)n[nH]c1=S	inactive
CCCCCCCC1=CC2=C(Cl)C(=O)C(C)(OC(C)=O)C(=O)C2=CN1C (centres undefined)	inconclusive: 5 µM [inhibitor, partial curve]
COc1ccc(Cl)cc1C(=O)NCc1ccco1	inactive
CC(C)CCNC(=O)CCc1nnc(Cc2c[nH]c3ccccc23)o1	inactive
O=C(CCN1CCc2ccccc2C1)Nc1ccccc1F	inconclusive: 31.5 µM [inhibitor, single point]
CC(C)CN1C=C2C(=O)C(C)(OC(=O)C3CCCC3)C(=O)C=C2C=C1c1ccsc1 (centres undefined)	inconclusive: 0.354 µM [inhibitor, full curve]
